Experimental data: a collection of fitness landscapes (doi:10.1016/j.celrep.2020.107928)
Over roughly 81,000 sequences, “one-hybrid fitness for binding parS DNA” has its median near -0.17; the highest 2% begin near 0.51. The list shows a part of the results.

B1: Caulobacter ParB omega fusion; a variant is named by its letters at X, in order, B8GW30 (parent)
chain: MESVVVGEPGMSEGRRGLGRGLSALLGEVDAAPAQAPGEQLGGSREAPIEILQRNPDQPRRTFREEDLEDLSNSIREKGVLQPILVRPSPDTAGEYQIVAGERAWRAAQRAGLKTVPIMVRELDDLAVLEIGIIENVQRADLNVLEEALSYKVLMEKFERTQENIAQTIGKSXSHVANXMRLLXLPDEVQSYLVSGELTAXHARAIAAAADPVALAKQIIEGGLSVRETEALARKAPNLSAGKSKGGRPPRVKDTDTQALESDLSSVLGLDVSIDHRGSTGTLTITYATLEQLDDLCNRLTRGI

Variants of: B1
Experiment: one-hybrid fitness for binding parS DNA (scaled: cognate 1, non-cognate 0); higher = stronger binding
Settings: with parS DNA site
How it was run: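 Caulobacter ParB libraries with four specificity codons randomised were screened by bacterial one-hybrid selection in the E. coli USO strain, using a HIS3 reporter whose site lies 19 bp from the promoter. Selection ran for 48 hours at 37°C on M9 lacking histidine, with 0.1 mM IPTG and 5 mM 3-AT. Plasmids were Illumina-sequenced before and after selection, three replicate libraries were pooled, and variants with under 10 reads were dropped. Fitness is the log change in each variant's read ratio to wild type, rescaled against the cognate and non-cognate sites.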

one-hybrid fitness for binding parS DNA, ≤ 0.2:
IPSL
RAMH
TNPG
NESA
WGHP
ANGM
YSWL
QKKY
KNQG
DEAT
WHAL
SLWW
IDNW
KFCS
LRKC
TCVF
ARTA
MHVN
RARH
SPPH
DLSQ
HPKV
SFVR
ICRC
QTDA
DAQG
ENSP
QDKA
WLKN
YALR
CCGR
WALS
QPYR
LQYL
PPPR
FVVV
VYSR
THFM
TEKD
ILDL
TLSA
AKTC
TSIA
PSTP
DDER
GPPI
QQQW
ENNC
NFTG
TQKG
HGQS
YSHR
YTRL
FSPW
IPTG
GPYM
DHQD
NRFS
TEWY
QGQS
LWYA
IWMT
VLTY
ANDI
LDTC
WLYC
NIHN
YIKG
GSNW
AHDW
LEAK
RAME
MECT
DTWS
PYNI
GTQQ
DVWS
AYHG
KNRR
STCV
NMHL
NRAL
IKRA
ETCF
FGVM
DYAG
WRAR
STLF
GCNY
LKNQ
PFMS
WVMN
TNEL
PPHV
QYYH
CEDT
VKHC
AFRI
MPST
HSCS
PQRL
DNHY
GGME
YRKP
PMDR
SPRC
EHQG
MRHC
SLMS
QLVA
DSDY
EVAT
LWSC
IRNG
CINT
EPNV
HELR
DPVM
AAFC
AQSW
SREF
QSNV
GDKR
ALRY
NIHR
IKKR
INLA
APPR
AVVL
PVTS
PNCF
CTIM
ACVI
NMAR
SCIA
DVQV
HQAG
MNWM
DAAL
KVFR
ENKY
QMEE
QSPW
DYMM
KADF
WDEC
LPIT
CIQI
PMPN
SFKV
VVTS
NVCT
QQET
WKHS
HPTC
KRVV
LYRW
GCTY
WRAG
PQGS
QWSM
QKWY
TNTT
GLVL
DAMG
EYKG
VLYY
NCAE
DPVL
QFRE
ETYT
LPTC
LTGF
QKMF
QGRV
PGSI
PITS
WAAA
VTWH
CPDR
YASV
LQTM
QDAD
SHAY
QIGA
INYS
CSSW
PKTI
LKFR
NPDL
REGE
ASEL
MTAK
DMRS
LYVH
SPVG
GVAH
EEGS
TDTS
RTLK
RTRD
LCWC
QHML
IMLN
KWCT
NFRA
QVTA
QANH
LKCT
MSSA
QPSA
DQRG
VSEI
HNFT
HDGV
QYSC
HGYA
HHGR
LMES
AQHE
TCAT
LYFS
KCTW
SSKA
RRVV
PDGW
LTAL
YING
EHRV
CVTM
ISCP
SKMG
TDRM
FGAR
EDMS
FGTS
PNAP
HADI
PERY
KQTV
WFSG
QKRG
KQTC
IMTL
ADRE
QNYE
IPFL
DTWP
QMTC
RSFR
DPKT
SCET
IVLQ
TTCN
VPRT
QQTF
IRLH
HSNW
NFTT
GTSI
MEQR
RFLQ
ILPY
RIEM
QTPA
HNKS
AMQT
MRSG
QQVV
ESCY
LRDS
KLLR
VRLA
FGRW
QLRF
NYAY
AVGD
IHDG
RQRE
HTIF
KDTS
SLEC
GPVI
REVA
KAVG
MRQA
HIMT
NVDG
TFRM
RGQF
SQSP
DRPK
RHWL
FSAM
NAFI

one-hybrid fitness for binding parS DNA, 0.241:
VKAI

one-hybrid fitness for binding parS DNA, 0.318:
RMNW

one-hybrid fitness for binding parS DNA, 0.232:
YVYF

one-hybrid fitness for binding parS DNA, 0.273:
RLYF

one-hybrid fitness for binding parS DNA, 0.368:
RNTY

one-hybrid fitness for binding parS DNA, 0.452:
RTCY

one-hybrid fitness for binding parS DNA, 0.976:
RCMC

one-hybrid fitness for binding parS DNA, 0.289:
RTCH

one-hybrid fitness for binding parS DNA, 0.299:
RNMN

one-hybrid fitness for binding parS DNA, 0.233:
RTIF

one-hybrid fitness for binding parS DNA, 0.277:
HRSG
